Test results taken from the supplement of paper PMC10126150.
Values marked as one replicate rest on one cluster of the flow cell; about a third of the high ones do not repeat.

Test system: ATP
Experiment: switch fluorescence ratio, 500 uM ATP over buffer (Cy3 cluster intensity, sum of 5 cycles each) (fold (ratio)); higher = stronger signal-on switching upon ATP binding; sequences stand for … in TCGTCGGCAGCGTCAGATGTGTATAAGAGACAGTTTTTTTTTTTTTTTTTTTTTTTTT…TC
Conditions: aptamer strand: ATP DNA aptamer (quencher-CACCTGGGGGAGTATTGCGGAGGAAGG + anchor), 100 nM annealed; ATP concentration: 500 uM; one replicate
How it was run: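 Imaging in selection buffer was followed by imaging after 15 min with 500 uM ATP at 22 °C, for Cy3-labelled switching-strand clusters annealed to 100 nM quencher-labelled ATP aptamer on a modified Illumina MiSeq flow-cell. Five of these buffer/ATP cycles ran, separated by NaOH stripping and re-annealing. The fluorescence ratio per cluster is summed target-cycle over summed buffer-cycle Cy3 intensity, averaged per switch-domain sequence; clusters outside 100-1000 RFU were removed.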
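Also: ATP exposure 15 min at 22 °C before imaging.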

AAACCCTCGA
switch fluorescence ratio: 1.04

TTTTGCCTTT
switch fluorescence ratio: 0.983

TACTTGTAAC
switch fluorescence ratio: 1.01

TGGTGGTTAG
switch fluorescence ratio: 0.956

ATTAGGCTGC
switch fluorescence ratio: 0.957

AATTTACCAT
switch fluorescence ratio: 1.03

AATTCAGCTT
switch fluorescence ratio: 0.964

CTGTGATTTT
switch fluorescence ratio: 1.03

ATATGTCTTG
switch fluorescence ratio: 1.01

CCCTGCGCCC
switch fluorescence ratio: 2.51

CTTATTTCG
switch fluorescence ratio: 0.963

GGTGACTTGC
switch fluorescence ratio: 1.07

CACGACTCTC
switch fluorescence ratio: 1.03

TTAAACATG
switch fluorescence ratio: 0.987

CTGCTCGGAC
switch fluorescence ratio: 1.22

CGAATCATTT
switch fluorescence ratio: 0.94

AAGTCACTCG
switch fluorescence ratio: 1.06

GGGCTCAACC
switch fluorescence ratio: 1.02

GTGATTTAAG
switch fluorescence ratio: 0.963

GCTGTGGCAA
switch fluorescence ratio: 0.974

GCTCGCTGCT
switch fluorescence ratio: 0.993

TTAACAATGA
switch fluorescence ratio: 0.979

GGTCTCAAGT
switch fluorescence ratio: 0.98

ATTGTCATCG
switch fluorescence ratio: 0.966

AAACGGCAGA
switch fluorescence ratio: 1.01

TTAGGCTGTT
switch fluorescence ratio: 1.06

TGGCTGGGT
switch fluorescence ratio: 1.04

CAGAAAACGT
switch fluorescence ratio: 1.04

AGGGATCCAT
switch fluorescence ratio: 1.02

TCTTAGTGCT
switch fluorescence ratio: 1.07

TGTTGTCCGA
switch fluorescence ratio: 0.977

TAATAGATTT
switch fluorescence ratio: 0.958

TCGGGGAACC
switch fluorescence ratio: 0.992

AGGCCACTCA
switch fluorescence ratio: 1.05

AAGTGATTGA
switch fluorescence ratio: 1

ACAGACAGAT
switch fluorescence ratio: 1.07

ATAAAGGGAA
switch fluorescence ratio: 1.03

TTACTGAGTC
switch fluorescence ratio: 1.01

TGATCCAA
switch fluorescence ratio: 0.965

CTGTTTCTCA
switch fluorescence ratio: 0.981

ATCGACAATC
switch fluorescence ratio: 1.53

TTGAAAGCCG
switch fluorescence ratio: 1.14

GGTAGATCTA
switch fluorescence ratio: 1.03

AAGTGCGCAG
switch fluorescence ratio: 1.02

CAAGGCGGTC
switch fluorescence ratio: 1.04

AGTGGGGCCG
switch fluorescence ratio: 0.92

CTAGTTTAGC
switch fluorescence ratio: 1.02

CCTAGTAATT
switch fluorescence ratio: 1.13

AGTTGGACGG
switch fluorescence ratio: 0.99

AGTACAGGTA
switch fluorescence ratio: 1.03

CATACGACCT
switch fluorescence ratio: 1.59

TTTGCCCGAA
switch fluorescence ratio: 0.972

TAACAACCGT
switch fluorescence ratio: 0.998

GGTACGATTG
switch fluorescence ratio: 1.02

TAAGTACTGT
switch fluorescence ratio: 1.23

ACTTCTCCTG
switch fluorescence ratio: 1.11

TATTAATAG
switch fluorescence ratio: 0.997

TCTTAAGTTT
switch fluorescence ratio: 1.01

TAGGCTTCAG
switch fluorescence ratio: 0.965

GATGCGACTC
switch fluorescence ratio: 1.22

GATAGAGGAC
switch fluorescence ratio: 0.897

ATATAGGTCG
switch fluorescence ratio: 1

TCGACCAGC
switch fluorescence ratio: 1.21

TATGAACGTT
switch fluorescence ratio: 0.989

AGACTGTCAA
switch fluorescence ratio: 0.992

CTATGAGCT
switch fluorescence ratio: 1.03

GAAGTGAGAT
switch fluorescence ratio: 0.985

GCAGTGAAAT
switch fluorescence ratio: 1.04

TGCGAGTCT
switch fluorescence ratio: 1.1

TATGTTGGAA
switch fluorescence ratio: 0.972

TCAGGAACCA
switch fluorescence ratio: 1

GCTTCGGCAC
switch fluorescence ratio: 1

GAGTGTGAGC
switch fluorescence ratio: 1.01

TGTTAATCTT
switch fluorescence ratio: 1.04

GGGTATAGAC
switch fluorescence ratio: 0.971

GAAGCGTTCC
switch fluorescence ratio: 2.98

GTGGTGATAA
switch fluorescence ratio: 1.03

CATCCAGCTA
switch fluorescence ratio: 5.86

GTATAAGGGA
switch fluorescence ratio: 0.968

GCCGCGCAGC
switch fluorescence ratio: 1.04

GACACAAAG
switch fluorescence ratio: 1

AGAACTCGCT
switch fluorescence ratio: 1

ACACCAAGTG
switch fluorescence ratio: 1.06

CTTAGACGTT
switch fluorescence ratio: 0.979

CCGTCGGGCC
switch fluorescence ratio: 1.1
